Test results published in the supplement of paper PMC8728848.
This is one part of the list.

Experiments:
Assay in all cases: glycan array binding signal (z-score within array); higher = stronger binding
Conditions in all cases: glycan notation: IUPAC condensed, linker removed
Fuc(a1-2)Gal = target: Fuc(a1-2)Gal
Procedure, shortened: (§1)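 Glycan array data came from 3228 arrays in the Consortium for Functional Glycomics database, and only arrays with an available protein sequence were kept. Glycan names were put into IUPAC-condensed notation, and columns mapping to the same glycan were averaged. The binding signal is a within-array Z-score, averaged across arrays of one protein sequence run at different concentrations or buffers and across linkers. A negative Z-score can be read as non-binding.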

Fuc(a1-2)Gal(b1-3)GalNAc = target: Fuc(a1-2)Gal(b1-3)GalNAc
Procedure, shortened: as §1

[1] = target: Fuc(a1-2)Gal(b1-3)GalNAc(a1-3)[Fuc(a1-2)]Gal(b1-4)Glc
Procedure, shortened: as §1

[2] = target: Fuc(a1-2)Gal(b1-3)GalNAc(a1-3)[Fuc(a1-2)]Gal(b1-4)GlcNAc
Procedure, shortened: as §1

[3] = target: Fuc(a1-2)Gal(b1-3)GalNAc(b1-3)Gal
Procedure, shortened: as §1

[4] = target: Fuc(a1-2)Gal(b1-3)GalNAc(b1-3)Gal(a1-4)Gal(b1-4)Glc
Procedure, shortened: as §1

[5] = target: Fuc(a1-2)Gal(b1-3)GalNAc(b1-4)[Neu5Ac(a2-3)]Gal(b1-4)Glc
Procedure, shortened: as §1

Fuc(a1-2)Gal(b1-3)GlcNAc = target: Fuc(a1-2)Gal(b1-3)GlcNAc
Procedure, shortened: as §1

[6] = target: Fuc(a1-2)Gal(b1-3)GlcNAc(b1-2)Man(a1-3)[Fuc(a1-2)Gal(b1-3)GlcNAc(b1-2)Man(a1-6)]Man(b1-4)GlcNAc(b1-4)GlcNAc
Procedure, shortened: as §1

[7] = target: Fuc(a1-2)Gal(b1-3)GlcNAc(b1-2)Man(a1-3)[Fuc(a1-2)Gal(b1-3)GlcNAc(b1-2)Man(a1-6)]Man(b1-4)GlcNAc(b1-4)[Fuc(a1-6)]GlcNAc
Procedure, shortened: as §1

[8] = target: Fuc(a1-2)Gal(b1-3)GlcNAc(b1-3)Gal(b1-4)Glc
Procedure, shortened: as §1

[9] = target: Fuc(a1-2)Gal(b1-3)GlcNAc(b1-3)GalNAc
Procedure, shortened: as §1

[10] = target: Fuc(a1-2)Gal(b1-3)GlcNAc(b1-3)[Fuc(a1-2)Gal(b1-3)GlcNAc(b1-6)]GalNAc
Procedure, shortened: as §1

[11] = target: Fuc(a1-2)Gal(b1-3)GlcNAc(b1-3)[Fuc(a1-3)[Gal(b1-4)]GlcNAc(b1-6)]Gal(b1-4)Glc
Procedure, shortened: as §1

[12] = target: Fuc(a1-2)Gal(b1-3)GlcNAc(b1-3)[Gal(b1-4)GlcNAc(b1-6)]Gal(b1-4)Glc
Procedure, shortened: as §1

[13] = target: Fuc(a1-2)Gal(b1-3)GlcNAc(b1-3)[Neu5Ac(a2-6)Gal(b1-4)GlcNAc(b1-6)]Gal(b1-4)Glc
Procedure, shortened: as §1

[14] = target: Fuc(a1-2)Gal(b1-3)GlcNAc6S
Procedure, shortened: as §1

[15] = target: Fuc(a1-2)Gal(b1-3)[Fuc(a1-4)]GlcNAc
Procedure, shortened: as §1

[16] = target: Fuc(a1-2)Gal(b1-3)[Fuc(a1-4)]GlcNAc(b1-2)Man(a1-3)[Fuc(a1-2)Gal(b1-3)[Fuc(a1-4)]GlcNAc(b1-2)Man(a1-6)]Man(b1-4)GlcNAc(b1-4)GlcNAc
Procedure, shortened: as §1

[17] = target: Fuc(a1-2)Gal(b1-3)[Fuc(a1-4)]GlcNAc(b1-2)Man(a1-6)[Fuc(a1-2)Gal(b1-3)[Fuc(a1-4)]GlcNAc(b1-2)Man(a1-3)]Man(b1-4)GlcNAc(b1-4)[Fuc(a1-6)]GlcNAc
Procedure, shortened: as §1

[18] = target: Fuc(a1-2)Gal(b1-3)[Fuc(a1-4)]GlcNAc(b1-3)[Fuc(a1-3)[Gal(b1-4)]GlcNAc(b1-6)]Gal(b1-4)Glc
Procedure, shortened: as §1

[19] = target: Fuc(a1-2)Gal(b1-3)[Fuc(a1-4)]GlcNAc(b1-3)[Gal(b1-4)GlcNAc(b1-6)]Gal(b1-4)Glc
Procedure, shortened: as §1

Fuc(a1-2)Gal(b1-4)Glc = target: Fuc(a1-2)Gal(b1-4)Glc
Procedure, shortened: as §1

Fuc(a1-2)Gal(b1-4)Glc6S = target: Fuc(a1-2)Gal(b1-4)Glc6S
Procedure, shortened: as §1

Fuc(a1-2)Gal(b1-4)GlcNAc = target: Fuc(a1-2)Gal(b1-4)GlcNAc
Procedure, shortened: as §1

[20] = target: Fuc(a1-2)Gal(b1-4)GlcNAc(b1-2)Man
Procedure, shortened: as §1

[21] = target: Fuc(a1-2)Gal(b1-4)GlcNAc(b1-2)Man(a1-3)[Fuc(a1-2)Gal(b1-4)GlcNAc(b1-2)Man(a1-6)]Man(b1-4)GlcNAc(b1-4)GlcNAc
Procedure, shortened: as §1

[22] = target: Fuc(a1-2)Gal(b1-4)GlcNAc(b1-2)Man(a1-3)[Fuc(a1-2)Gal(b1-4)GlcNAc(b1-2)Man(a1-6)]Man(b1-4)GlcNAc(b1-4)[Fuc(a1-6)]GlcNAc
Procedure, shortened: as §1

[23] = target: Fuc(a1-2)Gal(b1-4)GlcNAc(b1-2)[Fuc(a1-2)Gal(b1-4)GlcNAc(b1-4)]Man(a1-3)[Fuc(a1-2)Gal(b1-4)GlcNAc(b1-2)Man(a1-6)]Man(b1-4)GlcNAc(b1-4)GlcNAc
Procedure, shortened: as §1

[24] = target: Fuc(a1-2)Gal(b1-4)GlcNAc(b1-3)Gal(b1-4)GlcNAc
Procedure, shortened: as §1

B1: ArathEULS3 (Arabidopsis thaliana), Q945P1 (protein)
chain: MEHHHQHHRHHQRDDGEDDRQSFGVPPPHVDAPPQPHGLYQSQPHFDPYAPTPQAPAPYRSETQFEPHAPPPYRSEPYFETPAPPPSFGHVSHVGHQSPNESYPPEHHRYGGYQQPSNSLLESHGDHSGVTHVAHHSSNQPQSSSGVYHKPDENRLPDNLAGLAGRATVKVYSKAEPNYNLTIRDGKVILAPADPSDEAQHWYKDEKYSTKVKDADGHPCFALVNKATGEAMKHSVGATHPVHLIRYVPDKLDESVLWTESKDFGDGYRTIRMVNNTRLNVDAYHGDSKSGGVRDGTTIVLWDWNKGDNQLWKIFPFILEQKLISEEDLNSAVDHHHHHH
- glycan array binding signal (z-score) (Fuc(a1-2)Gal): 0.402
- glycan array binding signal (z-score) (Fuc(a1-2)Gal(b1-3)GalNAc): 0.059
- glycan array binding signal (z-score) [1]: -0.275
- glycan array binding signal (z-score) [2]: -0.18
- glycan array binding signal (z-score) [3]: 0.001
- glycan array binding signal (z-score) [4]: -0.313
- glycan array binding signal (z-score) [5]: -0.184
- glycan array binding signal (z-score) (Fuc(a1-2)Gal(b1-3)GlcNAc): -0.25
- glycan array binding signal (z-score) [6]: -0.068
- glycan array binding signal (z-score) [7]: 0.265
- glycan array binding signal (z-score) [8]: 0.024
- glycan array binding signal (z-score) [9]: -0.252
- glycan array binding signal (z-score) [10]: -0.058
- glycan array binding signal (z-score) [11]: 0.182
- glycan array binding signal (z-score) [12]: -0.249
- glycan array binding signal (z-score) [13]: -0.159
- glycan array binding signal (z-score) [14]: -0.065
- glycan array binding signal (z-score) [15]: 0.438
- glycan array binding signal (z-score) [16]: -0.053
- glycan array binding signal (z-score) [17]: -0.223
- glycan array binding signal (z-score) [18]: -0.06
- glycan array binding signal (z-score) [19]: 1.47
- glycan array binding signal (z-score) (Fuc(a1-2)Gal(b1-4)Glc): -0.084
- glycan array binding signal (z-score) (Fuc(a1-2)Gal(b1-4)Glc6S): -0.487
- glycan array binding signal (z-score) (Fuc(a1-2)Gal(b1-4)GlcNAc): -0.135
- glycan array binding signal (z-score) [20]: -0.386
- glycan array binding signal (z-score) [21]: -0.069
- glycan array binding signal (z-score) [22]: 0.565
- glycan array binding signal (z-score) [23]: 0.36
- glycan array binding signal (z-score) [24]: -0.205
